The list shows a part of the results.
Legend:
Experiment in all cases: glycan array binding signal (z-score within array); higher = stronger binding
Settings in all cases: glycan notation: IUPAC condensed, linker removed
[1] = target: Fuc(a1-2)Gal(b1-4)GlcNAc(b1-3)Gal(b1-4)GlcNAc(b1-3)Gal(b1-4)GlcNAc
Summary of the method: (§1)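 From the Consortium for Functional Glycomics database, 3228 arrays were curated, keeping only those whose protein sequence was available. Binding is given as a within-array Z-score averaged across arrays sharing a protein sequence and across linkers. Negative Z-scores can be read as non-binding.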

[2] = target: Fuc(a1-2)Gal(b1-4)GlcNAc(b1-3)GalNAc
Summary of the method: as §1

[3] = target: Fuc(a1-2)Gal(b1-4)GlcNAc(b1-3)[Fuc(a1-2)Gal(b1-4)GlcNAc(b1-6)]GalNAc
Summary of the method: as §1

[4] = target: Fuc(a1-2)Gal(b1-4)GlcNAc(b1-3)[Fuc(a1-3)[Gal(b1-4)]GlcNAc(b1-6)]Gal(b1-4)Glc
Summary of the method: as §1

[5] = target: Fuc(a1-2)Gal(b1-4)GlcNAc(b1-6)GalNAc
Summary of the method: as §1

[6] = target: Fuc(a1-2)Gal(b1-4)GlcNAc6S
Summary of the method: as §1

[7] = target: Fuc(a1-2)Gal(b1-4)[Fuc(a1-3)]GlcNAc
Summary of the method: as §1

[8] = target: Fuc(a1-2)Gal(b1-4)[Fuc(a1-3)]GlcNAc(b1-2)Man(a1-3)[Fuc(a1-2)Gal(b1-4)[Fuc(a1-3)]GlcNAc(b1-2)Man(a1-6)]Man(b1-4)GlcNAc(b1-4)[Fuc(a1-6)]GlcNAc
Summary of the method: as §1

[9] = target: Fuc(a1-2)Gal(b1-4)[Fuc(a1-3)]GlcNAc(b1-2)[Fuc(a1-2)Gal(b1-4)[Fuc(a1-3)]GlcNAc(b1-4)]Man(a1-3)[Fuc(a1-2)Gal(b1-4)[Fuc(a1-3)]GlcNAc(b1-2)Man(a1-6)]Man(b1-4)GlcNAc(b1-4)GlcNAc
Summary of the method: as §1

[10] = target: Fuc(a1-2)Gal(b1-4)[Fuc(a1-3)]GlcNAc(b1-3)Gal(b1-4)[Fuc(a1-3)]GlcNAc
Summary of the method: as §1

[11] = target: Fuc(a1-2)Gal(b1-4)[Fuc(a1-3)]GlcNAc(b1-3)Gal(b1-4)[Fuc(a1-3)]GlcNAc(b1-3)Gal(b1-4)[Fuc(a1-3)]GlcNAc
Summary of the method: as §1

[12] = target: Fuc(a1-2)Gal(b1-4)[Fuc(a1-3)]GlcNAc(b1-3)GalNAc
Summary of the method: as §1

[13] = target: Fuc(a1-2)Gal(b1-4)[Fuc(a1-3)]GlcNAc(b1-3)[Neu5Ac(a2-6)Gal(b1-4)GlcNAc(b1-6)]Gal(b1-4)Glc
Summary of the method: as §1

[14] = target: Fuc(a1-2)Gal3S(b1-4)GlcNAc
Summary of the method: as §1

[15] = target: Fuc(a1-2)Gal6S(b1-3)GlcNAc
Summary of the method: as §1

[16] = target: Fuc(a1-2)Gal6S(b1-3)GlcNAc6S
Summary of the method: as §1

Fuc(a1-2)Gal6S(b1-4)Glc = target: Fuc(a1-2)Gal6S(b1-4)Glc
Summary of the method: as §1

[17] = target: Fuc(a1-2)Gal6S(b1-4)Glc6S
Summary of the method: as §1

Fuc(a1-2)[Gal(a1-3)]Gal = target: Fuc(a1-2)[Gal(a1-3)]Gal
Summary of the method: as §1

[18] = target: Fuc(a1-2)[Gal(a1-3)]Gal(b1-3)GalNAc
Summary of the method: as §1

[19] = target: Fuc(a1-2)[Gal(a1-3)]Gal(b1-3)GalNAc(b1-3)Gal(a1-4)Gal(b1-4)Glc
Summary of the method: as §1

[20] = target: Fuc(a1-2)[Gal(a1-3)]Gal(b1-3)GlcNAc
Summary of the method: as §1

[21] = target: Fuc(a1-2)[Gal(a1-3)]Gal(b1-3)GlcNAc(b1-2)Man(a1-3)[Fuc(a1-2)[Gal(a1-3)]Gal(b1-3)GlcNAc(b1-2)Man(a1-6)]Man(b1-4)GlcNAc(b1-4)GlcNAc
Summary of the method: as §1

[22] = target: Fuc(a1-2)[Gal(a1-3)]Gal(b1-3)GlcNAc(b1-2)Man(a1-3)[Fuc(a1-2)[Gal(a1-3)]Gal(b1-3)GlcNAc(b1-2)Man(a1-6)]Man(b1-4)GlcNAc(b1-4)[Fuc(a1-6)]GlcNAc
Summary of the method: as §1

[23] = target: Fuc(a1-2)[Gal(a1-3)]Gal(b1-3)GlcNAc(b1-3)GalNAc
Summary of the method: as §1

[24] = target: Fuc(a1-2)[Gal(a1-3)]Gal(b1-3)GlcNAc(b1-6)GalNAc
Summary of the method: as §1

[25] = target: Fuc(a1-2)[Gal(a1-3)]Gal(b1-4)Glc
Summary of the method: as §1

[26] = target: Fuc(a1-2)[Gal(a1-3)]Gal(b1-4)GlcNAc
Summary of the method: as §1

[27] = target: Fuc(a1-2)[Gal(a1-3)]Gal(b1-4)GlcNAc(b1-2)Man
Summary of the method: as §1

[28] = target: Fuc(a1-2)[Gal(a1-3)]Gal(b1-4)GlcNAc(b1-2)Man(a1-3)[Fuc(a1-2)[Gal(a1-3)]Gal(b1-4)GlcNAc(b1-2)Man(a1-6)]Man(b1-4)GlcNAc(b1-4)GlcNAc
Summary of the method: as §1

B1: LecB LY19 (Pseudomonas aeruginosa) (protein)
chain: MATQGVFTLPANTQFGVTAFANSAGTQTVNVQVNNETVATFTGQSTNNGIIGSKVLNSGGGGKVQILVSVNGRSSDLVSAQVILANELNFALVGSEDSTDNDYNDAVVVINWPLG
- glycan array binding signal (z-score) [1]: 3.69
- glycan array binding signal (z-score) [2]: -0.53
- glycan array binding signal (z-score) [3]: 1.24
- glycan array binding signal (z-score) [4]: 1.59
- glycan array binding signal (z-score) [5]: 1
- glycan array binding signal (z-score) [6]: 1.24
- glycan array binding signal (z-score) [7]: 2.54
- glycan array binding signal (z-score) [8]: 5.32
- glycan array binding signal (z-score) [9]: 0.085
- glycan array binding signal (z-score) [10]: 5.07
- glycan array binding signal (z-score) [11]: 3.27
- glycan array binding signal (z-score) [12]: -0.338
- glycan array binding signal (z-score) [13]: 0.417
- glycan array binding signal (z-score) [14]: 1.58
- glycan array binding signal (z-score) [15]: 1.56
- glycan array binding signal (z-score) [16]: 0.163
- glycan array binding signal (z-score) (Fuc(a1-2)Gal6S(b1-4)Glc): 0.999
- glycan array binding signal (z-score) [17]: 2.08
- glycan array binding signal (z-score) (Fuc(a1-2)[Gal(a1-3)]Gal): 1.31
- glycan array binding signal (z-score) [18]: -0.521
- glycan array binding signal (z-score) [19]: -0.512
- glycan array binding signal (z-score) [20]: -0.452
- glycan array binding signal (z-score) [21]: -0.2
- glycan array binding signal (z-score) [22]: 0.089
- glycan array binding signal (z-score) [23]: -0.531
- glycan array binding signal (z-score) [24]: -0.528
- glycan array binding signal (z-score) [25]: 0.02
- glycan array binding signal (z-score) [26]: 0.23
- glycan array binding signal (z-score) [27]: 9.41
- glycan array binding signal (z-score) [28]: -0.022
